Read counts are not given, so values of variants with three or more changes are uncertain.
B1: LINE1-mini (parent)
chain: GGCAGAGCUCAACACAGCGUGGCAAAGUGGCUGUGGCUAGACUGCC

Variants of: B1
Experiment: self-cleavage, relative activity (ratio to wild type); higher = more cleavage; in vitro, sequencing; the parent is a self-cleaving ribozyme
Variant C8A A16G U34C has a self-cleavage of 0.05.
Work on C8A C10A G19A yielded a self-cleavage of 0.01.
G7U G29C C37G showed a self-cleavage of 0.
With C8A A16U G36C the self-cleavage was 0.14.
G7U G19A G36A C42G showed a self-cleavage of 0.04.
For C8A A11U G22U A25C C31A, the self-cleavage was 0.03.
With G7U G21U G36A the self-cleavage was 0.13.
Variant G7U G29A U43A has a self-cleavage of 0.04.
With G7U C18G C31A the self-cleavage was 0.03.
With C8A A11C C15A the self-cleavage was 0.02.
C8A C15A C18U G21A A41C showed a self-cleavage of 0.2.
G7U U34A C37A showed a self-cleavage of 0.02.
Variant G7U C37A C42U C45G has a self-cleavage of 0.03.
In the case of G7U G40A A41U U43G, the self-cleavage is reported as 0.18.
With C8A A12C G40U the self-cleavage was 0.02.
Variant G7U U28G G30C G35U G40U C42U has a self-cleavage of 0.28.
Work on G7U C23U G29A yielded a self-cleavage of 0.02.
In the case of C8A C15A G29C, the self-cleavage is reported as 0.93.
C8A C10A A41C U43A C46U gave a self-cleavage of 0.02.
Work on C8A C18A A25C G44C C45A yielded a self-cleavage of 0.03.
C8A C10G C13G C23A G29A C31A C37A U38A gave a self-cleavage of 0.02.
C8A C18A G21C gave a self-cleavage of 0.12.
C8A A14C G29C U32C G35C gave a self-cleavage of 0.07.
C8A C10A U32A showed a self-cleavage of 0.01.
C8A C10U C13G G17A G30A C37A showed a self-cleavage of 0.04.
In the case of C8A A39G G40C C42U, the self-cleavage is reported as 0.08.
For G7U C31U U38C, the self-cleavage was 0.02.
With C8A C10G G17A G27C the self-cleavage was 0.
For G7U G21C A24U G29U, the self-cleavage was 0.27.
C8A C13A G29C A39C A41U U43C gave a self-cleavage of 0.02.
Work on G7U U20A C23A yielded a self-cleavage of 0.02.
Work on C8A C15G G17U G40U yielded a self-cleavage of 0.05.
G7U U20C C45A gave a self-cleavage of 0.05.
In the case of G7U G36C C45A, the self-cleavage is reported as 0.14.
For G7U G33A A39G, the self-cleavage was 0.26.
Work on G7U G27U G35C C46G yielded a self-cleavage of 0.1.
Variant G7U U32G G44C C46G has a self-cleavage of 0.03.
With C8A A11U G30C U38G the self-cleavage was 0.03.
G7U G22U G33U U43A gave a self-cleavage of 0.34.
In the case of C8A C13U G17C U43C, the self-cleavage is reported as 0.15.
For C8A A11C G22C A25U, the self-cleavage was 0.03.
In the case of C8A C15A G30A, the self-cleavage is reported as 0.63.
For C8A C13G C46U, the self-cleavage was 0.67.
Variant G7U G19U U32G has a self-cleavage of 1.05.
With C8A A24U U28A U34A the self-cleavage was 0.22.
Work on C8A C13U C18A A41C yielded a self-cleavage of 0.17.
With C8A C18G C46U the self-cleavage was 0.1.
Variant C8A A11U A16G has a self-cleavage of 0.04.
For G7U C23A U32A G44U, the self-cleavage was 0.2.
Work on C8A A14G C37A yielded a self-cleavage of 0.74.
For C8A A12U G21U C37A, the self-cleavage was 0.04.
For G7U C23A C45U, the self-cleavage was 0.11.
In the case of G7U G27C C31U U43C, the self-cleavage is reported as 0.06.
C8A A14G C18U gave a self-cleavage of 0.15.
With G7U U32A G36U A39C the self-cleavage was 0.12.
For C8A A14G G30U C31U C46G, the self-cleavage was 0.02.
Variant C8A C15G C46G has a self-cleavage of 0.09.
Work on C8A A12G A14C G17C G33U yielded a self-cleavage of 0.24.
Variant G7U U34G C37U A41C U43A has a self-cleavage of 0.02.
For G7U G19U U28G, the self-cleavage was 0.03.
For G7U G17A U20G U28A, the self-cleavage was 0.11.
G7U U9A G44U C46A showed a self-cleavage of 0.01.
In the case of C8A C10U C23A, the self-cleavage is reported as 0.12.
Variant C8A C10A G29U has a self-cleavage of 0.02.
For C8A A24C G40A, the self-cleavage was 0.15.
G7U U9G A11C C42A showed a self-cleavage of 0.02.
Variant G7U G22A G36A has a self-cleavage of 0.03.
C8A A14C G27A C42G gave a self-cleavage of 0.14.
Work on G7U G33U A39U A41C yielded a self-cleavage of 0.07.
C8A A16G G19A G44C gave a self-cleavage of 0.18.
With C8A A26C G35U G44A the self-cleavage was 0.01.
With G7U U32G G35U U38G A41U the self-cleavage was 0.01.
Work on G7U C23A A26U A41U yielded a self-cleavage of 0.1.
Work on G7U C31U G33C C37U yielded a self-cleavage of 0.01.
With G7U U20G G29U G33A A39C the self-cleavage was 0.05.
C8A C10G G44U gave a self-cleavage of 0.05.
Variant C8A A25G G33C U34A has a self-cleavage of 0.08.
Variant G7U C37U C45A has a self-cleavage of 0.04.
Work on G7U U28A G36U yielded a self-cleavage of 0.03.
Variant G7U G30U G35C C37U has a self-cleavage of 0.02.
C8A A14G G19U C42U gave a self-cleavage of 0.12.
Variant G7U G22C A25G A41U C45G has a self-cleavage of 0.07.
In the case of G7U C23A C37G U38G, the self-cleavage is reported as 0.01.
For C8A C15G G22A C42U C46A, the self-cleavage was 0.04.
Variant C8A A16G C23A C42G has a self-cleavage of 0.17.
C8A C10A A12C G33U G35U gave a self-cleavage of 0.
In the case of C8A A14C A25G, the self-cleavage is reported as 0.11.
G7U C23A G33A A39G showed a self-cleavage of 0.01.
With G7U U9C G17U the self-cleavage was 0.05.
For G7U G33C A39G, the self-cleavage was 0.04.
Variant C8A C18G C23A has a self-cleavage of 0.55.
For G7U G22U G29U C46U, the self-cleavage was 0.03.
For C8A C13G U20C G27U G29A, the self-cleavage was 0.28.
For C8A A25U U28G, the self-cleavage was 0.15.
C8A C10A U20C U43A gave a self-cleavage of 0.02.
Work on G7U C37A C42A C45U yielded a self-cleavage of 0.02.
For C8A A39G C42A, the self-cleavage was 0.56.
G7U C18G G33U G40A U43A gave a self-cleavage of 0.13.
C8A C10U A11U C13A G19A G22A gave a self-cleavage of 0.02.
G7U U9C A16U U20C G33A showed a self-cleavage of 0.02.
Work on G7U U32G U38A yielded a self-cleavage of 0.06.
G7U G27U C37G gave a self-cleavage of 0.03.
C8A C10G A16G G17C G29U gave a self-cleavage of 0.02.
For G7U G21U C42U, the self-cleavage was 0.15.
With C8A C10U A11C A26G C37A A39G the self-cleavage was 0.01.
In the case of G7U G30U C31U C45U, the self-cleavage is reported as 0.04.
In the case of C8A C15G C31A, the self-cleavage is reported as 0.03.
For G7U U9C G35U A39C, the self-cleavage was 0.08.
With G7U C18U A39G the self-cleavage was 0.03.
Variant G7U C23A U32C U38G has a self-cleavage of 0.
G7U G19A G21A showed a self-cleavage of 1.55.
C8A C13A G30C C42G gave a self-cleavage of 0.13.
For G7U U9A C10A A25U C31A U34G, the self-cleavage was 0.08.
For C8A A39C C46U, the self-cleavage was 0.05.
In the case of C8A A14G C42A, the self-cleavage is reported as 0.25.
C8A A25G C45U gave a self-cleavage of 0.38.
Work on C8A C15U A26C G36U yielded a self-cleavage of 0.59.
Work on G7U G35A A39G yielded a self-cleavage of 0.03.
G7U U9C A26U G33C gave a self-cleavage of 0.02.
In the case of C8A A16U G19A U20A, the self-cleavage is reported as 0.04.
C8A A14U G21U U38C gave a self-cleavage of 0.07.
For G7U G22A G30U A39U G40U, the self-cleavage was 0.19.
Variant G7U G17C U32C C37A C42A has a self-cleavage of 0.03.
In the case of G7U U20G U32G G36U C37G A39U, the self-cleavage is reported as 0.01.
For G7U U20C C23A, the self-cleavage was 0.
Work on C8A A11C G40A yielded a self-cleavage of 0.02.
Variant C8A A12C A14U C18A A24C has a self-cleavage of 0.06.
With C8A A11C G19A G30C the self-cleavage was 0.
Work on C8A C13U G27C C42U yielded a self-cleavage of 0.16.
Work on C8A C10A C18G C31A U34A yielded a self-cleavage of 0.03.
With G7U G21A G33C A41C the self-cleavage was 0.14.
C8A A16U C46U gave a self-cleavage of 0.39.
For C8A A14C A41U, the self-cleavage was 0.08.
C8A C13A A14G G17A U20A C45U gave a self-cleavage of 0.02.
For C8A A12U G17U A25U G29U C46U, the self-cleavage was 0.49.
With G7U U32A C37G A39U the self-cleavage was 0.03.
C8A C10A C15U G29U G40U gave a self-cleavage of 0.06.
G7U C23G G44U showed a self-cleavage of 0.59.
Work on C8A C13A C15U G33C yielded a self-cleavage of 0.18.
With C8A A14U A16C C42U the self-cleavage was 0.23.
Work on C8A C18G A24U yielded a self-cleavage of 0.15.
For C8A A11C G44U, the self-cleavage was 0.02.
Variant G7U G19U U20C G30A has a self-cleavage of 0.08.
Variant C8A A16G G27C G44A has a self-cleavage of 0.16.
With G7U G19C G22U G29U the self-cleavage was 0.03.
Variant C8A C10A U28G U34G G35U G36C A39C G40A has a self-cleavage of 0.04.
In the case of C8A A26C U34C, the self-cleavage is reported as 0.01.
In the case of G7U G21U C46A, the self-cleavage is reported as 0.03.
For G7U G17U C23A, the self-cleavage was 0.46.
Work on G7U C23A U32C yielded a self-cleavage of 0.05.
Work on G7U G22C U43G yielded a self-cleavage of 0.08.
C8A C15G A25G showed a self-cleavage of 0.2.
In the case of G7U U43A C46G, the self-cleavage is reported as 0.03.
G7U U9G G40A C42U C45G showed a self-cleavage of 0.09.
With C8A A24U G33U the self-cleavage was 0.07.
C8A C10A U34C showed a self-cleavage of 0.01.
G7U U9C C10U G44A C45G showed a self-cleavage of 0.01.
In the case of C8A C13G U32G C37A, the self-cleavage is reported as 0.26.
G7U G30A G40U showed a self-cleavage of 0.29.
G7U G36C G40C showed a self-cleavage of 0.07.
For G7U G17A U32C U43A, the self-cleavage was 0.13.
C8A A11G C15A G17U A25G showed a self-cleavage of 0.02.
G7U G21A G35C showed a self-cleavage of 0.07.
With G7U C18U G35U the self-cleavage was 0.02.
In the case of C8A A12G G36U, the self-cleavage is reported as 0.07.
In the case of C8A A12G C46U, the self-cleavage is reported as 0.11.
C8A C10A U43A gave a self-cleavage of 0.04.
